# Reference: PubChem BioAssay (NCATS)
# The shares of active, inactive and inconclusive entries below differ from those in the screen. For some of these results: Where the call is inconclusive, the potency comes from a doubtful curve fit. The source made the active and inactive calls. Unless noted, the call rests on the fitted dose curve; in most records, active means well fitted curve in either direction with a large enough effect (not every such curve was filed as active); inconclusive means small, poorly fitted or top-dose-only effect, or another doubt; inactive means flat fitted curve, though single readings scatter.
# How the values were obtained:
# [1] = AP1 Signaling Pathway (AID 357); conditions: ME-180 AP-1-bla reporter, EGF-induced, beta-lactamase ratio, 5 h; at 17.2 µM (top of the series) unless noted; further: top concentration of the series differs between compounds; on the % scale 0 is the no-effect control and ±100 the full control effect
# How it was run: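 Titration-series screen for positive or negative modulators of EC50 EGF-induced signaling in ME-180 cells carrying an AP-1-driven beta-lactamase reporter. After 5 hours at 37 degrees Celsius, CCF4 460nm/530nm emission ratio gave %Activity; AC50 values derived.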
# [2] = NFAT Signaling Pathway (AID 444); conditions: Jurkat NFAT-bla M1, carbachol, beta-lactamase ratio, 5 h; at 17.2 µM (top of the series) unless noted;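 further: carbachol stimulus at about its EC50 of 1 µM final; on the % scale 0 is the no-effect control and ±100 the full control effect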
# How it was run: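 Jurkat cells with NFAT-driven β-lactamase reporter and co-expressed M1 receptor, stimulated with carbachol (final 1 uM, ~EC50), compound titration, 5 h at 37 °C. CCF4 loaded 1 h at RT; 460/530 nm ratio gave %activity and AC50.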
# [3] = target: Ubiquitin carboxyl-terminal hydrolase 1 (Homo sapiens) (UniProt O94782); test: Inhibitors of USP1/UAF1: Pilot qHTS (AID 504865; active means well fitted curve in the direction sought with a large enough effect; inconclusive means small, poorly fitted or top-dose-only effect, or another doubt; inactive means no such curve, though single readings can be large; an effect the other way counts as inactive or inconclusive;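 further: rhodamine fluorescence freed from ubiquitin-rhodamine substrate followed over time; top concentration of the series differs between compounds; on the % scale 0 is the no-effect control and ±100 the full control effect; nearly all actives have a fitted effect of over 35% in size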)
# Sequence of UniProt O94782 (O94782 whole entry, looked up): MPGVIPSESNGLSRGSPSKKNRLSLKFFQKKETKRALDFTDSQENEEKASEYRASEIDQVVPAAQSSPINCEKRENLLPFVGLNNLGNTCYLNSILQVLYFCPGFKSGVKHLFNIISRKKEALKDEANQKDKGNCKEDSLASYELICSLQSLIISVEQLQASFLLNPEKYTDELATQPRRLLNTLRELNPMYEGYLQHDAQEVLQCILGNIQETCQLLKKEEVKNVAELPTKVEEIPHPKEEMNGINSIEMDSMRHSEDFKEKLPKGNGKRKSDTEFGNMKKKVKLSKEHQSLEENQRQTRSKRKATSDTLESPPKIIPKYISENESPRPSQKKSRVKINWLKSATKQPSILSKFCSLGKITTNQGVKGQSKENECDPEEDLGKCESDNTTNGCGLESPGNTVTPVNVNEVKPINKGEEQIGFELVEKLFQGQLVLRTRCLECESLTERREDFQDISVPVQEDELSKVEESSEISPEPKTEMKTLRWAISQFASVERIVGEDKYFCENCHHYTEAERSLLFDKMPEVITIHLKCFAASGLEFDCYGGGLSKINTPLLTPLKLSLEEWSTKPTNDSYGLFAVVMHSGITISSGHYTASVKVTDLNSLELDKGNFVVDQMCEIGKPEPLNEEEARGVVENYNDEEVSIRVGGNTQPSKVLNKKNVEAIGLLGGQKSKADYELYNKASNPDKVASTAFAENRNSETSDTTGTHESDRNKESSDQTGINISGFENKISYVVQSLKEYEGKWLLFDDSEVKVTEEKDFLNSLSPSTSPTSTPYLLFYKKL
# How it was run: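 In 50mM HEPES pH 7.8 containing 0.5mM EDTA, 1mM TCEP, 0.1 mg/ml BSA and 0.01% Tween-20, 1nM USP1/UAF1 is exposed to compound for 15 min, then Ub-Rho (150nM final) is added and fluorescence is read over time.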
# [4] = Stat Signaling Pathway (AID 446); conditions: ME-180 SIE beta-lactamase reporter, IL-6 stimulated, 5 h; at 7.69 µM (top of the series) unless noted;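 further: ME-180 cervical cancer cells given 40 pM IL-6 alongside compound; SIE-controlled beta-lactamase reporter measured as 460/530 nm FRET emission ratio; top concentration of the series differs between compounds; on the % scale 0 is the no-effect control and ±100 the full control effect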
# How it was run: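 FRET read-out (405 nm excitation, 460/530 nm emission) of a beta-lactamase reporter under a STAT-inducible element in ME-180 cervical carcinoma cells. Cells with compound receive 40 pM IL-6 for 5 h. Values are normalised to AC90 stimulation and AC90 JAK-inhibitor controls.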
# [5] = qHTS Assay for Identification of Small Molecule Agonists for Hypoxia Response Element Signaling Pathway (AID 914; active means well fitted activation curve with a large enough effect in the signal ratio, with a control signal flat, not every such curve was filed as active; inconclusive means small, poorly fitted or top-dose-only effect, or effect the other way, or a change in a side signal; the % refers to the signal ratio; further: potency means the concentration at half of the fitted maximal effect; on activation: top concentration of the series differs between compounds; % of control where 0% means no effect); conditions: ME-180 (cervical carcinoma) HRE-bla reporter, beta-lactamase ratio, CoCl2, 17 h; activation: stronger effect = higher value
# How it was run: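 HRE-bla ME-180 assay for agonist-like enhancement of an EC50 CoCl2 stimulus: 17 h at 37 degrees Celsius, CCF4 for 2.5 h, ratiometric 460/530 nm signal converted to %Activity and fitted to AC50.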
# [6] = target: Glucocorticoid receptor (Homo sapiens) (UniProt P04150); test: GR-GFP Redistribution (AID 450;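 active means compounds whose dose series gives a full or clear partial fitted curve of increased nuclear translocation; inconclusive means weak partial curve or effect only at the top dose; inactive means no dose-dependent translocation response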; further: potency means the concentration at half of the fitted maximal effect); conditions: U2OS GR-GFP nuclear translocation, laser cytometry, 2 h
# Sequence of UniProt P04150 (P04150 whole entry, looked up, the tested form may be a part): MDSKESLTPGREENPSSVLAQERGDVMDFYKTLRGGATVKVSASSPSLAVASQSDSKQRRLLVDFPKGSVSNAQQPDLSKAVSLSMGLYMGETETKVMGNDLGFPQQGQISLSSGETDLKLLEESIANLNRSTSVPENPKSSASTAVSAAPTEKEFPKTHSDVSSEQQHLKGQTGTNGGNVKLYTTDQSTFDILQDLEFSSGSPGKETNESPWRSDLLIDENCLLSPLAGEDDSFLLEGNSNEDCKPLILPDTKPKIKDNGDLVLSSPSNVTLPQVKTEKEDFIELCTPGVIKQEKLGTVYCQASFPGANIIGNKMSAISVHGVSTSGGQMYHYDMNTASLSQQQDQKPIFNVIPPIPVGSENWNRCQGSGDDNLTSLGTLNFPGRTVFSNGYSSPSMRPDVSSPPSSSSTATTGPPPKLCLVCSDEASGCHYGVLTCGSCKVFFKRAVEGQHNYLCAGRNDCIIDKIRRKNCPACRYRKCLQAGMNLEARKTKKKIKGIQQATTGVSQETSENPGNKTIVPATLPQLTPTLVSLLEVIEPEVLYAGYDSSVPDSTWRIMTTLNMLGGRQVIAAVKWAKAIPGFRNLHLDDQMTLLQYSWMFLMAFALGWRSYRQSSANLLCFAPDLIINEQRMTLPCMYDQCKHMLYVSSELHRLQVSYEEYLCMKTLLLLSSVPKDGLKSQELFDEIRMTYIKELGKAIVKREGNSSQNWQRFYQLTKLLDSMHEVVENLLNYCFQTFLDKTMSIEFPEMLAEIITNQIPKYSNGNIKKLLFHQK
# [7] = target: Cytochrome P450 3A4 (Homo sapiens) (UniProt P08684); test: qHTS Assay for Inhibitors and Substrates of Cytochrome P450 3A4 (AID 884; active means well fitted curve in the direction sought with a large enough effect; inconclusive means small, poorly fitted or top-dose-only effect, or another doubt; inactive means no such curve, though single readings can be large; an effect the other way counts as inactive or inconclusive; further: potency means the concentration at half of the fitted maximal effect; nearly all actives have a fitted effect of over 50% in size)
# Sequence of UniProt P08684 (P08684 whole entry, looked up): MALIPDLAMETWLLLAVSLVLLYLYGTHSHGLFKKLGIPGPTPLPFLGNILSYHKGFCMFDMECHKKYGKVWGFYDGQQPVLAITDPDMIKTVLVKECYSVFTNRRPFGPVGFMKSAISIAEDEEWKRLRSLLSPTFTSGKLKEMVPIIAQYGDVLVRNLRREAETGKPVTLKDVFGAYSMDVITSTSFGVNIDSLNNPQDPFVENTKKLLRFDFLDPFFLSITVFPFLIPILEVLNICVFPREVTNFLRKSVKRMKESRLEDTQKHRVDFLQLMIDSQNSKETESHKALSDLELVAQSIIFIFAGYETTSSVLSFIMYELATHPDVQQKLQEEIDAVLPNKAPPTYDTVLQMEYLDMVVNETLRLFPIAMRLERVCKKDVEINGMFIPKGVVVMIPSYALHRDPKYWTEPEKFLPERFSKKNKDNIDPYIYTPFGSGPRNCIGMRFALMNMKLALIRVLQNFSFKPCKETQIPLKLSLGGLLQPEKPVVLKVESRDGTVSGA
# How it was run: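 Luminescent readout of luciferin produced by CYP3A4 (20 nM) dealkylation of Luciferin-PPXE, 25 uM (its KM). NADPH-driven reaction ran 60 min at RT after 10 min compound preincubation; data scaled to 57 uM ketoconazole as 100% inhibition.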
# [8] = target: Glucocorticoid receptor (Homo sapiens) (UniProt P04150); test: GR-EFC Redistribution (AID 451; calls by dose curve; further: potency means the concentration at half of the fitted maximal effect); conditions: CHO-K1 GR-EFC translocation, beta-gal luminescence, 2 h
# How it was run: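 CHO-K1 cells expressing nuclear EA and GR-ED fragments of b-gal; compounds titrated up to 46 uM final, 2 h at 37 C. GR nuclear translocation read as complemented b-gal luminescence after 1 h RT detection.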
# Tags describe the fitted curve by direction and shape or compound fluorescence and quenching.
smiles,measurement,setting,value
CN1CCN(c2cc(-c3ccc(N(C)C)cc3)ncn2)CC1,"activity change, negative = inhibition",[1],inactive: -7.42% [at 7.69 µM]
same,"activity change, negative = inhibition",[2],inactive: -7.21% [at 7.69 µM]
same,Potency,[3],inactive
Cc1ccc(-n2ncc3c(N4CCN(c5ccccc5)CC4)ncnc32)c(C)c1,"activity change, negative = inhibition",[1],inconclusive: -48.8% [inhibitor]
same,"activity change, negative = inhibition",[2],inconclusive: -60.6% [inhibitor]
same,"activity, negative = inhibition",[4],inconclusive: -75.4% [inhibitor] [at 17.2 µM]
same,activation,[5],inconclusive: 2.08%
COc1cccc(Nc2ncc3nc(-c4cc(F)cc(F)c4)c(=O)n(C[C@H]4CCCO4)c3n2)c1,"activity change, negative = inhibition",[1],inconclusive: -38.9% [inhibitor] [at 7.69 µM]
same,"activity change, negative = inhibition",[2],inconclusive: -43.3% [inhibitor] [at 7.69 µM]
same,Potency,[6],inactive: > 9.22 µM
same,Potency,[7],"inconclusive: 6.31 µM [inhibitor, partial curve]"
COc1ccc2[nH]c3c(N4CCN(Cc5ccc6c(c5)OCO6)CC4)ncnc3c2c1,"activity change, negative = inhibition",[1],inconclusive: -49.9% [inhibitor]
same,"activity change, negative = inhibition",[2],inconclusive: -63.9% [inhibitor]
same,"activity, negative = inhibition",[4],inconclusive: -41.2% [inhibitor] [at 17.2 µM]
same,Potency,[5],"inconclusive: 3.16 µM [inhibitor, partial curve]"
CS(=O)(=O)N1CCC2(CCCN(Cc3ccc(C#N)cc3)C2)CC1,"activity change, negative = inhibition",[1],inactive: -16.1% [at 7.69 µM]
same,"activity change, negative = inhibition",[2],inconclusive: -43.7% [inhibitor] [at 7.69 µM]
same,Potency,[8],inactive: > 46 µM
C=CCn1c(N)c(C(=O)Nc2ccccc2)c2nc3ccccc3nc21,"activity change, negative = inhibition",[1],inconclusive: 34.4% [activator]
same,"activity change, negative = inhibition",[2],inactive: -5.29%
same,"activity, negative = inhibition",[4],inconclusive: 63.4% [activator] [at 17.2 µM]
same,Potency,[5],active: 5.01 µM
